Assay results from PubChem BioAssay AID485313 (National Center for Advancing Translational Sciences (NCATS), 2010).
Out of some 320,000 compounds screened, about 7,600 (2.4%) were called active. Inconclusive results, whose numbers are uncertain, are shown with a selection of clear calls. Calls come from the whole dose curve; as a rule, active = well fitted activation curve with a large enough effect; inconclusive = small, poorly fitted or top-dose-only effect; inactive = no such curve, though single readings can be large or run the other way. Potencies of inconclusive entries are left out as doubtful fits.
Potency is the fitted concentration of half-maximal effect; tags give direction and shape of the fitted curve.

Experiment: qHTS Assay for NPC1 Promoter Activators; note: nearly all actives have a fitted effect of over 60% in size;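 for activation: reporter is driven by a mutant NPC1 promoter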
Conditions: Huh7 NPC1 promoter luciferase reporter, 24 h; series mostly up to 9.22 µM
Summary of the method: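 Huh7 reporter cells (NPC1 promoter driving luciferase) are dosed with compound for 24 h at 37 °C, 5% CO2; luciferase detection reagent is then added and luminescence measured after 10 min at ambient temperature.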
With `CCOc1ccc(-c2nc(CSc3nnc(N)s3)cs2)cc1` the Potency was inconclusive [activator, single point].
With `COc1ccc(CCN2C(=O)NC(NC(=O)CCc3ccccc3)(C(F)(F)F)C2=O)cc1OC` (stereo not given) the Potency was “inactive”.
In the case of `Cc1ccccc1C(=O)NNC(=O)c1ccc(Br)cc1`, the Potency is reported as inconclusive [activator, partial curve].
In the case of `Cn1c2ccccc2c(=O)c2cc(C#Cc3ccsc3)ccc21`, the Potency is reported as inconclusive [activator, single point].
For `CCCCNC(=O)Nc1ccc(C2SCCS2)cc1`, the Potency was inconclusive [activator, single point].
With `COc1ccccc1C(=O)COC(=O)c1ccc(N(C)C)cc1` the Potency was active: 3.16 µM.
In the case of `Cc1cc(C)n2nc(-c3ccco3)nc2n1`, the Potency is reported as “inactive”.
With `Cc1ccc(OC(=O)c2ccc(N3CCOCC3)c([N+](=O)[O-])c2)cc1` the Potency was “inactive”.
In the case of `O=C1NC(=O)/C(=C\c2ccc(Cl)nc2)S1`, the Potency is reported as inconclusive [activator, single point].
In the case of `O=C(Nc1ccc2ccccc2c1)c1ccc(Cl)cc1Cl`, the Potency is reported as active: 0.224 µM.
With `CC(C)c1nc(-c2ccc([N+](=O)[O-])cc2)cs1` the Potency was “inactive”.
With `O=C(Nc1cccc(-c2nc3ncccc3o2)c1)c1cc2ccccc2o1` the Potency was inconclusive [activator, full curve].
For `C=CCN1C(=O)S/C(=C\c2ccc(N3CCOCC3)cc2C)C1=O`, the Potency was inconclusive [activator, single point].
With `COc1ccc(NC(=O)Nc2ccc3c(c2)CCC3)cc1` the Potency was inconclusive [activator, partial curve].
In the case of `CCCCc1ccc(NC(=O)COCC)cc1`, the Potency is reported as “inactive”.
With `O=C(CCS(=O)(=O)c1ccccc1)Nc1cccc(-c2nc3ccccc3s2)c1` the Potency was inconclusive [activator, single point].
With `CCN(CC)c1ccc(CNc2ccc(Br)cn2)cc1` the Potency was inconclusive [activator, single point].
With `COC(=O)c1ccc(C(=O)NCCCCO)cc1` the Potency was “inactive”.
In the case of `Cn1nnnc1SCC(=O)Nc1ccc2c(c1)OCCO2`, the Potency is reported as active: 2.82 µM.
For `COc1ccc2oc(C(=O)OCC(=O)N3CCCC3=O)c(C)c2c1`, the Potency was “inactive”.
For `c1ccc(CCc2nc(-c3ccccc3)no2)cc1`, the Potency was inconclusive [activator, single point].
In the case of `CC(C)(C)c1csc(NC(=O)c2ccc(Br)o2)n1`, the Potency is reported as inconclusive [activator, partial curve].
For `COc1ccc(CN(C(=O)CSc2nnc(-c3ccccc3C)o2)c2ccc(F)cc2)cc1`, the Potency was “inactive”.
With `Cc1nn(C)c(=O)n1-c1ccc(OCc2ccccc2)cc1` the Potency was inconclusive [activator, single point].
For `C=CCn1c(=O)c(C(=O)Nc2ccc(C)cc2)c(O)c2ccccc21`, the Potency was inconclusive [activator, partial curve].
For `CC(C)c1cc(C(=O)Nc2cccnc2)no1`, the Potency was active: 3.98 µM.
With `COc1ccc(C2N(Cc3ccccc3)CCN2Cc2ccccc2)cc1[N+](=O)[O-]` the Potency was “inactive”.
With `O=C1[C@H]2[C@@H](c3ccc(F)cc3)N3C(=O)N(c4cccc(Br)c4)C(=O)[C@@]3(Cc3ccc(Cl)cc3)[C@H]2C(=O)N1C1CCCCC1` the Potency was “inactive”.
In the case of `Cc1ccc(OCC(=O)O/N=C(\N)c2ccncc2)c(C)c1`, the Potency is reported as active: 3.16 µM.
In the case of `COc1ccc(NC(=O)NC(=O)c2ccccc2)cc1`, the Potency is reported as active: 1 µM.
With `Fc1ccc(-c2ccc(NCCN3CCOCC3)nn2)cc1` the Potency was inconclusive [activator, single point].
For `O=C(Nc1ccc(Cl)cc1)OCc1cncs1`, the Potency was inconclusive [activator, partial curve].
With `c1ccc2sc(NN=C3CCCC3)nc2c1` the Potency was active: 1.41 µM.
In the case of `C/C(=N\Nc1ncnc2sc(C)c(C)c12)c1ccccn1`, the Potency is reported as inconclusive [activator, single point].
For `COc1ccc(NC(=O)c2cccc(NC(=O)c3ccccc3)c2)cc1`, the Potency was inconclusive [activator, single point].
For `Cc1ccnc2nc(C(=O)Nc3ccc4c(c3)OCO4)nn12`, the Potency was active: 1.78 µM.
With `CSC1=NNC(c2ccc(C(C)(C)C)cc2)=NN1` the Potency was inconclusive [activator, partial curve].
With `CCN(CC)c1ccc(NC(=O)Nc2cccc3ccccc23)cc1` the Potency was inconclusive [activator, single point].
For `COc1ccc(-c2nn(-c3ccccc3)cc2C#N)cc1`, the Potency was inconclusive [activator, single point].
In the case of `Clc1ccc(-n2ncc3c(NCc4ccccn4)ncnc32)cc1`, the Potency is reported as inconclusive [activator, partial curve].
With `COc1cccc(NC(=O)c2ccc(C(=O)c3ccccc3)o2)c1` the Potency was inconclusive [activator, single point].
In the case of `COc1ccc(NC(=O)c2ccccc2O)c(OC)c1`, the Potency is reported as inconclusive [activator, partial curve].
With `CC(C)c1ccc(CNc2ncc(Br)cn2)cc1` the Potency was inconclusive [activator, partial curve].
In the case of `CCOC(=O)/C(=N\Nc1ncnc2ccccc12)c1ccc(C)cc1`, the Potency is reported as inconclusive [activator, single point].
With `Cc1cc(C(=O)CN2CCCCC2)c(C)n1-c1ccc(F)cc1` the Potency was inconclusive [activator, partial curve].
With `O=C(COc1ccc(Cl)cc1Br)NC1CC1` the Potency was inconclusive [activator, single point].
For `CCOc1ccc(N/C=C/C(=O)c2ccc(OC)c(OC)c2)cc1`, the Potency was active: 3.16 µM.
For `O=C(COC(=O)c1ccc[nH]c1=O)NC1CCCc2ccccc21` (stereo not given), the Potency was “inactive”.
For `CCOC(=O)C1(Cc2ccccc2Cl)CCN(C(=O)CN2CCOC2=O)CC1`, the Potency was inconclusive [activator, partial curve].
For `c1ccc(Oc2ccc(-c3ccn[nH]3)cc2)cc1`, the Potency was inconclusive [activator, partial curve].
